From a compilation of properties of binary mixtures (doi:10.1021/je100671v)
The densities may have been worked out from excess volumes.

Test: xn = mol fraction of the nth substance listed
Conditions: 298.15 K, 101.3 kPa

**Q.** What does the source list for `CCCCCCCC(=O)[O-].c1c[nH+]c[nH]1` + CCO?
**A.** mass density (x2 = 0): 987 kg/m3; mass density (x2 = 0.1043): 981.6 kg/m3; mass density (x2 = 0.1984): 976.3 kg/m3; mass density (x2 = 0.301): 970.1 kg/m3; mass density (x2 = 0.4): 962.7 kg/m3; mass density (x2 = 0.4786): 954.6 kg/m3; mass density (x2 = 0.5999): 938.1 kg/m3; mass density (x2 = 0.7006): 918.8 kg/m3; mass density (x2 = 0.7999): 891.8 kg/m3

**Q.** With `CCCCCCCC(=O)[O-].c1c[nH+]c[nH]1` + CCCCCCCCO as the compound, how does the mass density (x2 = 0) read?
**A.** The mass density was 987 kg/m3.

**Q.** What about the mass density (x2 = 0.1011) of the same compound?
**A.** The mass density was 974.4 kg/m3.

**Q.** And the mass density (x2 = 0.1999)?
**A.** The mass density was 961.2 kg/m3.

**Q.** What about the mass density (x2 = 0.2991) of the same compound?
**A.** The mass density was 947 kg/m3.

**Q.** And the mass density (x2 = 0.6999)?
**A.** Its mass density is 881.8 kg/m3.

**Q.** What about the mass density (x2 = 0.799) of the same compound?
**A.** Its mass density is 863.9 kg/m3.

**Q.** Which mass density (x2 = 0) does the source give for `CCCCCCCC(=O)[O-].c1c[nH+]c[nH]1` + O here?
**A.** Its mass density is 987 kg/m3.

**Q.** And the mass density (x2 = 0.0989)?
**A.** Its mass density is 987.9 kg/m3.

**Q.** And the mass density (x2 = 0.1964)?
**A.** Its mass density is 988.8 kg/m3.

**Q.** And the mass density (x2 = 0.3042)?
**A.** Its mass density is 990 kg/m3.

**Q.** What about the mass density (x2 = 0.4091) of the same compound?
**A.** Its mass density is 991.7 kg/m3.

**Q.** What about the mass density (x2 = 0.6017) of the same compound?
**A.** Its mass density is 996.6 kg/m3.

**Q.** What about the mass density (x2 = 0.6643) of the same compound?
**A.** The mass density was 998.6 kg/m3.

**Q.** What about the mass density (x2 = 0.8154) of the same compound?
**A.** Its mass density is 1002.9 kg/m3.

**Q.** For `CCCCCCCC(=O)[O-].c1c[nH+]c[nH]1` + CC#N, which mass density (x2 = 0) is on record?
**A.** The mass density was 987 kg/m3.

**Q.** What about the mass density (x2 = 0.1044) of the same compound?
**A.** Its mass density is 988.1 kg/m3.

**Q.** And the mass density (x2 = 0.1986)?
**A.** The mass density was 985.2 kg/m3.

**Q.** And the mass density (x2 = 0.298)?
**A.** The mass density was 978.9 kg/m3.

**Q.** What about the mass density (x2 = 0.4005) of the same compound?
**A.** Its mass density is 969.6 kg/m3.

**Q.** And the mass density (x2 = 0.499)?
**A.** Its mass density is 957.9 kg/m3.

**Q.** And the mass density (x2 = 0.5995)?
**A.** The mass density was 942.5 kg/m3.

**Q.** And the mass density (x2 = 0.6924)?
**A.** The mass density was 923 kg/m3.

**Q.** What about the mass density (x2 = 0.7988) of the same compound?
**A.** Its mass density is 891.6 kg/m3.

**Q.** What about the mass density (x2 = 0.8996) of the same compound?
**A.** The mass density was 846.7 kg/m3.

**Q.** Which mass density (x1 = 1) does the source give for `CCCCCCCCO` + c1c[nH+]c[nH]1.CCCCCCCC(=O)[O-] here?
**A.** Its mass density is 824.5 kg/m3.

**Q.** Which mass density (x1 = 1) does the source give for `CCO` + c1c[nH+]c[nH]1.CCCCCCCC(=O)[O-] here?
**A.** The mass density was 790 kg/m3.
